Measured values reported in PMC10668032.
Some of the results follow. At the low end of the ranking, values are background and their order means little.

The sequences below were run against SIX1 homeodomain (reference allele) (UniProt Q15475) (assay: universal protein binding microarray). Settings: Universal all-10-mer PBM (8x60K, AMADID 030236), 300 nM GST-tagged protein, Alexa Fluor 488 anti-GST; buffer, salt, pH and temperature not stated; high values mean tight binding; most listed sequences are background and not binding sites; double strand, one strand shown.

| Sequence | binding signal |
| --- | --- |
| TATACATA | 0.246 E-score |
| ACTAGGTA | -0.0378 E-score |
| ATATATAT | 0.336 E-score |
| TGAGAACA | -0.00591 E-score |
| AATGGCCC | -0.33 E-score |
| ACGGGGCT | -0.0181 E-score |
| AACAGCTT | -0.305 E-score |
| TAGTCGAA | -0.115 E-score |
| TCCCACCA | -0.0654 E-score |
| CGGAGGGC | -0.0865 E-score |
| AGGTGAAT | -0.063 E-score |
| ATGGCTTG | -0.00628 E-score |
| GGGTGTGA | 0.158 E-score |
| AATAGTCT | -0.15 E-score |
| ACAAGTCA | -0.241 E-score |
| ACATCCGT | -0.109 E-score |
| CACTATAC | 0.203 E-score |
| CCACGCCG | -0.15 E-score |
| CGGGGCCA | 0.0671 E-score |
| CTGTAACC | -0.117 E-score |
| TCCGGCAA | -0.0691 E-score |
| AAGACCCA | -0.192 E-score |

| Sequence | binding signal |
| --- | --- |
| CGACCCCG | 0.139 E-score |
| CTCGGAAG | 0.0342 E-score |
| AAGTCCCG | -0.168 E-score |
| AAACTTAA | -0.213 E-score |
| CAAGGGAG | 0.0302 E-score |
| AAACAAGA | 0.0036 E-score |
| CGAAACAC | -0.0766 E-score |
| ATCCAGCA | 0.198 E-score |
| GAGAAGCC | 0.0549 E-score |
| GCGGCCGA | -0.1 E-score |
| GATAAACA | -0.0822 E-score |
| AGTTCCAG | -0.179 E-score |
| CGCGATAG | 0.199 E-score |
| AAGATGTG | -0.111 E-score |
| CGTGGATA | 0.362 E-score |
| AAGGGGTG | -0.0211 E-score |
| TATTGGGA | 0.135 E-score |
| TACATGCA | -0.0231 E-score |
| CTGTTCGA | -0.153 E-score |
| AAACGCCC | -0.00304 E-score |
| CCTGATTC | 0.0735 E-score |
| GAACACAA | 0.000545 E-score |

| Sequence | binding signal |
| --- | --- |
| CATCAGCG | 0.0156 E-score |
| AAGAACGA | 0.0109 E-score |
| CCATTTTA | -0.124 E-score |
| GACGCTTA | -0.0969 E-score |
| GGAGGCTA | 0.0449 E-score |
| AAATTCAT | -0.125 E-score |
| CTCGGAGC | -0.0996 E-score |
| AATATGCG | 0.171 E-score |
| AAGGCCTG | -0.366 E-score |
| CCGCTGAA | -0.156 E-score |
| CTAAGTAA | -0.201 E-score |
| ATTTGGTA | 0.0623 E-score |
| CCTGGACC | -0.149 E-score |
| CAAGGGGA | 0.165 E-score |
| AAAGATGA | 0.00316 E-score |
| GAGTGCAA | -0.0602 E-score |
| AATAAGCT | -0.0744 E-score |
| ACGGGAGA | -0.128 E-score |
| GCCCTCGA | -0.0358 E-score |
| GGCCAACA | -0.18 E-score |
| CCAAACCC | 0.0528 E-score |
| CTCATATC | 0.31 E-score |

| Sequence | binding signal |
| --- | --- |
| CGCCAAAC | -0.214 E-score |
| CACTAAAA | -0.18 E-score |
| CAAGGAAA | -0.0985 E-score |
| CTTGATCC | 0.361 E-score |
| ACTTGCGA | -0.0991 E-score |
| TCCGTCAA | -0.119 E-score |
| GTCGTGAA | -0.133 E-score |
| ACGTCCTG | -0.152 E-score |
| AATGTTAC | -0.273 E-score |
| GTATAATA | 0.365 E-score |
| ATAATTTC | -0.223 E-score |
| AAGTACTC | -0.0947 E-score |
| ACGATTTG | -0.168 E-score |
| AATAGGCT | -0.00546 E-score |
| CCGGATGA | 0.275 E-score |
| ACGGTGTG | 0.101 E-score |
| GAAGCGTC | -0.271 E-score |
| CCTTTCGC | -0.127 E-score |
| GCGGTTTA | -0.172 E-score |
| CAACGGTA | 0.077 E-score |
| GAGGACTC | -0.117 E-score |
| ATCACGTA | 0.214 E-score |

| Sequence | binding signal |
| --- | --- |
| CATAGGTC | 0.0275 E-score |
| ACTTAATA | 0.143 E-score |
| CTAAAGGA | -0.0595 E-score |
| CAATGAGC | -0.0869 E-score |
| ATGCGAAT | -0.033 E-score |
| AGGCCCAA | -0.288 E-score |
| AACTGGGA | 0.0601 E-score |
| CTTCATGC | -0.152 E-score |
| ACATAGAG | -0.138 E-score |
| AAAATGAC | -0.206 E-score |
| CTGGACCA | -0.16 E-score |
| GCTGTCGA | -0.138 E-score |
| ATAGTTCC | -0.0942 E-score |
| AGAGTGAC | -0.205 E-score |
| GAGGATAA | 0.278 E-score |
| CGCGATTC | 0.0204 E-score |
| CACCCAGG | 0.0696 E-score |
| CACCGCGG | 0.28 E-score |
| ATGCAGTG | 0.153 E-score |
| CCGTTATA | 0.117 E-score |
| AGACTAGG | -0.186 E-score |
